Assay results from the antibiotic and cytotoxicity screens of Wong et al. (2023).
The list shows a part of the results.

tested on: S. aureus RN4220; assay: growth inhibition call (relative growth <= 0.2); settings: 50 µM

Growth inhibition call, inactive:
COCC(=O)Nc1ccc2c(c1)OC[C@@H](C)N(C(=O)Cc1ccccn1)C[C@H](C)[C@@H](OC)CN(C)C2=O
C[C@@H]1CCCCO[C@@H](CN(C)C(=O)Nc2ccccc2)[C@@H](C)CN([C@H](C)CO)C(=O)c2cc(NS(=O)(=O)c3cccs3)ccc2O1
COc1ccc2c3c([nH]c2c1)[C@H](CO)N(C[C@]13CCN(CC1)CC1CCCCC1)C(=O)Nc1c(noc1C)C
C[C@H](CO)N1C[C@H](C)[C@H](CN(C)C(=O)Nc2cccc3ccccc23)OCCCC[C@H](C)Oc2ccc(NS(=O)(=O)c3cn(C)cn3)cc2C1=O
CCCC#Cc1cnc2c(c1)C(=O)N([C@H](C)CO)C[C@H](C)[C@@H](CN(C)S(=O)(=O)c1cccc(OC)c1)O2
C[C@@H]1CN([C@H](C)CO)S(=O)(=O)c2ccc(C#Cc3ccc(F)cc3)cc2O[C@H]1CN(C)S(=O)(=O)c1cn(C)cn1
C[C@H]1CN([C@@H](C)CO)C(=O)CCCn2nncc2CO[C@@H]1CN(C)S(=O)(=O)c1ccc(C#N)cc1
CCS(=O)(=O)N1CC[C@]2(CC1)CN([C@@H](CO)c1[nH]c3cc(ccc3c12)OC)C(=O)Cc1ccccn1
C[C@@H]1CN([C@H](C)CO)C(=O)c2cccc(NC(=O)Nc3ccccc3)c2O[C@H]1CN(C)Cc1ccc(Cl)c(Cl)c1
CC1=NNc2nc3c(c(=O)n(C)c(=O)n3C)n2C1
C[C@@H]1CN([C@H](C)CO)S(=O)(=O)c2ccc(-c3cncnc3)cc2O[C@@H]1CN(C)C(=O)c1cccc(F)c1
